Test results from PubChem BioAssay AID1963576 (National Center for Advancing Translational Sciences (NCATS), 2024).
Out of some 46,000 compounds screened, about 60 (0.1%) were called active. About 3% were inconclusive and are not listed. Calls come from the whole dose curve; as a rule, active = well fitted inhibition curve with a large enough effect; inconclusive = small, poorly fitted or top-dose-only effect; inactive = no such curve, though single readings can be large or run the other way. The list shows a part of the results.

Assay: Primary qHTS assay for Inhibitors of ovarian cancer metastasis using an organotypic tumor microenvironment (TME) model.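 For activity change, negative = inhibition: plate controls were DMSO wells for no effect and tomatine positive control wells for full effect.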 Note: nearly all actives have a fitted effect of over 65% in size.
Details: SKOV3ip1-GFP adhesion/invasion on 3D omental model, fluorescence; series mostly up to 45.8 µM; activity change, negative = inhibition: at the top concentration
How it was run: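 A 3D layer of primary human omental fibroblasts, mesothelial cells, fibronectin and collagen I, grown 48 hr, received SKOV3ip1-GFP cells in serum-free medium plus compounds at 0.36-46 umol/L. After 2 hr RT and 16 hr 37 C, fixed adherent GFP cells were counted; normalized to DMSO and tomatine.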

outcome, inactive:
O=C(Nc1ccc(F)cc1F)c1cc(S(=O)(=O)N2CCCCC2)c[nH]1, NS(=O)(=O)c1ccc(NC(=O)COc2ccc(S(=O)(=O)NC3CCCCC3)cc2)cc1, CC(=O)c1c(C)oc2c1cc(NS(=O)(=O)c1c(C)cc(C)cc1C)c1ccccc12, CCOC(=O)CSc1nc2cc(OC)c(OC)cc2c2nc(-c3ccccc3)nn12, O=C1CS(=O)(=O)C2(C(=O)N(Cc3ccccc3)c3ccccc32)N1c1ccc(F)c(Cl)c1 (configuration not stated), CCOc1ccc(S(=O)(=O)Nc2cccc(OC)c2)c2cccnc12, COc1ccc(S(=O)(=O)N(CC(=O)Nc2ccccc2Cl)Cc2ccccc2)cc1, CNC(=O)c1cnc2sc(N3CCCCCC3)nn2c1=O

Activity change, negative = inhibition, inactive:
CCN(CC)C(=O)Cn1c(=O)n(Cc2ccc(C(=O)NCCCOC)cc2)c(=O)c2ccccc21 -8.42%, CCOC(=O)C1=C(C)N=C2SCCC(=O)N2C1c1ccc(OCc2ccccc2)c(OC)c1 (configuration not stated) -3.62%, Cc1cc(NC(=O)c2cc(Cl)ccc2Cl)ccc1-c1cc2ccccc2oc1=O -15.1%, COC(=O)c1sccc1S(=O)(=O)N(CC(=O)NCc1ccc(C)cc1)c1ccc(C)c(C)c1 -2.96%, COc1ccc(NS(=O)(=O)c2ccc3[nH]c(=O)ccc3c2)cc1OC -13.8%, COc1cccc(-n2nnc(-c3nc(-c4cccs4)no3)c2N)c1 6.3%, COc1ccccc1C(=O)Oc1c(Sc2ccccc2)c(C)nn1-c1ccccc1 -3.87%, O=C(c1ccc(F)cc1)N1CCC[C@H](c2nc(-c3ccc(F)cc3)no2)C1 8.13%, COc1cc(OC)cc(C(=O)Nc2ccc3nc4n(c(=O)c3c2)CCCCC4)c1 -4.44%, O=C(Nc1cccc(Cl)c1)c1cc(-c2ccc3c(c2)OCO3)on1 -5.97%, Cc1ccc(CCNC(=O)CN2C(=O)COc3ccc(S(=O)(=O)N4CCCCCC4)cc32)cc1 9.83%, CN1C(=O)c2ccccc2Sc2ccc(NC(=O)NCc3ccc(Cl)cc3)cc21 1.18%, CCOc1ccc(N(CC)C(=O)CCc2nc(-c3ccccc3F)no2)cc1 1.59%, COc1ccc(C(=O)Nc2nc3ccccc3n2CCOc2ccc(Cl)cc2)cc1 -6.71%, CCc1ccc(NC(=O)C(Cc2ccccc2)NS(=O)(=O)c2ccc3c(c2)c(=O)n(C)c(=O)n3C)cc1 (configuration not stated) 0.659%, CCCOc1ccc(Oc2nc(NCC(C)C)nc(N(C)C)n2)nn1 -15.3%, Cc1cccn2c(=O)cc(CSc3nnc(NC(=O)c4ccc(F)cc4)s3)nc12 -8.17%, O=C(NCCc1ccccc1)c1ccc(Cn2c(SCc3ccccc3)nc3cccnc32)cc1 1.32%, COc1cccc(NC(=O)Cn2nc(C)c3c(C)n(-c4ccccc4)nc3c2=O)c1 -1.46%
